The record followed here is PubChem BioAssay AID222 (DTP/NCI, 2004).

The test system of this assay is C57BL/6 mice, intracerebral ependymoblastoma, median survival T/C. Briefly: NCI In Vivo Anticancer Drug Screen. Data for tumor model Ependymoblastoma (intracerebral) in C57BL/6 mice. As to conditions: endpoint: median survival time; dose: 64.0 mg/kg/injection; schedule: Q01DX001 (ip); vehicle: Klucel (hydroxypropylcellulose) (HPC); higher = longer survival. The protocol: The antitumor activity of compounds was measured in mice bearing transplantable tumors. Survival or tumor size were measured and the results are expressed as the measurement made in the treated group (T) divided by the measurement made in the vehicle treated control group (C). The tumor model used in this assay is Ependymoblastoma (intracerebral) in C57BL/6 mice

Each structure is given as a SMILES string. Inconclusive results and toxic doses are left out. A number of entries come with more than one value. The list is limited to them. The source may hold further records. The values listed for one entry do not match, cause unknown; some may be repeats, others may stem from another dose, organism or construct than stated.

For `O=NN(CCCl)C(=O)NCCCl`, the T/C is given as 93 % of control, 104 % of control, 156 % of control.
